# According to PubChem BioAssay (NCATS):
# Values joined by “and” are separate entries in the source; they are usually repeats but may differ in a detail not shown here. Equal entries are not always repeated. The inconclusive results got no clear call from the source; some entries with a clear call stand among them for comparison. For some of these results: Potencies of inconclusive entries are doubtful fits and often do not repeat. Active and inactive are the calls of the source. Calls come from the whole dose curve; as a rule, active = well fitted curve in the direction sought with a large enough effect; inconclusive = small, poorly fitted or top-dose-only effect, or another doubt; inactive = no such curve, though single readings can be large; an effect the other way counts as inactive or inconclusive.
# How the values were obtained:
# [1] = test system: HEK293; experiment: Cytotoxic Profiling of Annotated Libraries Using Quantitative High-Throughput Screening (AID 1296008); conditions: Five cell lines viability, CellTiter-Glo ATP luminescence, 48-72 h; max response: stronger effect = lower value; note: nearly all actives have a fitted effect of over 60% in size; for max response: % is set by controls: 0 for no effect and ±100 for the full control effect
# Summary of the method: (§1)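 Cells exposed to compounds for 48 or 72 hr at 37 degrees Celsius. Viability read as ATP-coupled luminescence with CellTiter-Glo after 10 min at room temperature.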
# [2] = test system: HaCat; experiment: as above; conditions: Five cell lines viability, CellTiter-Glo ATP luminescence, 48-72 h; max response: stronger effect = lower value
# Summary of the method: as §1
# [3] = Drug repurposing screens with cells derived from glioblastoma tumor samples (AID 1345199); conditions: GBM patient neurospheres viability, ATP luminescence, 48 h; Potency: tumour line A unless noted; activity, negative = cell killing: at 46 µM (top of the series), tumour line A unless noted; note: nearly all actives have a fitted effect of over 40% in size; for activity, negative = cell killing: % is set by controls: 0 for no effect and ±100 for the full control effect
# Summary of the method: (§2)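 Four patient lines of CD133+ GBM neurospheres were screened at several concentrations; hits were retested in those lines plus three slower-growing GBM lines, using 48-hour treatment and ATP-based viability.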
# [4] = test system: astro; experiment: as above; conditions: viability, ATP luminescence, 48 h; activity, negative = cell killing: at 45.9 µM (top of the series)
# Summary of the method: as §2
# [5] = test system: KB-3-1; experiment: Cytotoxic Profiling of Annotated Libraries Using Quantitative High-Throughput Screening (AID 1296008); conditions: Five cell lines viability, CellTiter-Glo ATP luminescence, 48-72 h; max response: stronger effect = lower value; note: nearly all actives have a fitted effect of over 60% in size; for max response: % is set by controls: 0 for no effect and ±100 for the full control effect
# Summary of the method: as §1
# [6] = test system: MCC-13; experiment: qHTS assay to identify novel small-molecules to repurpose for Merkel cell carcinoma treatment (AID 1296009); conditions: MCC and control cell lines, CellTiter-Glo viability, 72 h; series mostly up to 46 µM; note: nearly all actives have a fitted effect of over 60% in size
# Summary of the method: (§3)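 Cells were treated for 72 hr at 37 degree celsius with compounds in 8- or 11-point dose response. Viability was read by CellTiter-Glo luminescence, normalized to no-cell (cytotoxicity) and DMSO controls.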
# [7] = test system: MCC-26; experiment: as above; conditions: MCC and control cell lines, CellTiter-Glo viability, 72 h; series mostly up to 46 µM
# Summary of the method: as §3
# [8] = test system: MKL-2; experiment: as above; conditions: MCC and control cell lines, CellTiter-Glo viability, 72 h; series mostly up to 46 µM
# Summary of the method: as §3
# [9] = test system: UISO; experiment: as above; conditions: MCC and control cell lines, CellTiter-Glo viability, 72 h; series mostly up to 46 µM
# Summary of the method: as §3
# [10] = test system: WaGa; experiment: as above; conditions: MCC and control cell lines, CellTiter-Glo viability, 72 h; series mostly up to 46 µM
# Summary of the method: as §3
# [11] = qHTS assay to identify inhibitors of the type 1 interferon - major histocompatibility complex class I in skeletal muscle: Counter screen cell viability and HiBit confirmation (AID 1347412); conditions: iHSKM muscle cells + IFN-b, HiBiT or CellTiter-Glo, 24 h; note: nearly all actives have a fitted effect of over 60% in size; for activity change, negative = inhibition: % is set by controls: 0 for no effect and ±100 for the full control effect
# Summary of the method: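 Duplicate plates, pinned identically: one read for HiBiT-tagged endogenous HLA-B luminescence, the other for ATP-content viability via CellTiter Glo. Cells were genome-engineered human myoblasts given 4 ng/ml IFN-b; compounds 12-pt, 1:3 from 46 uM final; 24 hr exposure.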
# [12] = test system: C33A; experiment: Primary qHTS to identify gynecologic anti-cancer compounds using libraries of approved drugs and bioactive compounds (AID 1345084); conditions: Gynecologic cancer cell panel viability, ATPlite luminescence, 48 h; series mostly up to 57.5 µM; note: nearly all actives have a fitted effect of over 55% in size
# Summary of the method: (§4)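 Luminescence from the ATPlite ATP-monitoring reagent indicates viable cell number; lower signal means cytotoxicity. Cells received compound 16 h after seeding and were exposed for 48 h across five concentrations.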
# [13] = test system: CAOV3; experiment: as above; conditions: Gynecologic cancer cell panel viability, ATPlite luminescence, 48 h; series mostly up to 57.5 µM
# Summary of the method: as §4
# [14] = test system: CASKI; experiment: as above; conditions: Gynecologic cancer cell panel viability, ATPlite luminescence, 48 h; activity change, negative = cytotoxicity: at 57.5 µM (top of the series)
# Summary of the method: as §4
# [15] = test system: Es-2; experiment: as above; conditions: Gynecologic cancer cell panel viability, ATPlite luminescence, 48 h; series mostly up to 57.5 µM
# Summary of the method: as §4
# [16] = test system: HeLa; experiment: as above; conditions: Gynecologic cancer cell panel viability, ATPlite luminescence, 48 h; series mostly up to 57.5 µM
# Summary of the method: as §4
# [17] = test system: W2; experiment: qHTS profiling for inhibitors of Plasmodium falciparum proliferation (AID 504749); note: nearly all actives have a fitted effect of over 60% in size; conditions: P. falciparum in erythrocytes, SYBR Green DNA, 72 h; series mostly up to 28.7 µM
# Summary of the method: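 P. falciparum-infected erythrocytes (0.3% parasitemia, 2.5% hematocrit) incubated with compound 72 h at 37 C, 5% CO2. Parasite DNA detected by SYBR Green after lysis, overnight at room temperature; normalised to 0.29 uM artemisinin and DMSO.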
# [18] = test system: NIH3T3; experiment: Cytotoxic Profiling of Annotated Libraries Using Quantitative High-Throughput Screening (AID 1296008); conditions: Five cell lines viability, CellTiter-Glo ATP luminescence, 48-72 h; max response: stronger effect = lower value; note: nearly all actives have a fitted effect of over 60% in size
# Summary of the method: as §1
# [19] = test system: MKL-1; experiment: qHTS assay to identify novel small-molecules to repurpose for Merkel cell carcinoma treatment (AID 1296009); conditions: MCC and control cell lines, CellTiter-Glo viability, 72 h; series mostly up to 46 µM; note: nearly all actives have a fitted effect of over 60% in size
# Summary of the method: as §3
# Potency is the fitted concentration of half-maximal effect; tags give direction and shape of the fitted curve.
smiles,measurement,setting,value
COc1ccc(NS(=O)(=O)c2ccc(N)cc2)nn1,outcome,[1],inactive
same,outcome,[2],inactive
same,Potency,[3],inactive
same,Potency,[4],inactive
CC(C)c1nn(-c2c(Cl)cccc2Cl)c2nc(Cc3ccc(OCCO)cc3)[nH]c(=O)c12,Potency,[1],active: 59 nM and active: 36.6 nM
same,Potency,[2],active: 118 nM and active: 231 nM
same,Potency,[5],"inconclusive: 4.7 nM [inhibitor, full curve, poor fit] and active: 58 nM"
same,Potency,[6],active: 0.105 µM
same,Potency,[7],"inconclusive: 0.118 µM [inhibitor, full curve]"
same,Potency,[8],active: 0.105 µM
same,Potency,[9],active: 0.105 µM
same,Potency,[10],"inconclusive: 0.0935 µM [inhibitor, full curve]"
same,Potency,[11]; HiBiT,active: 0.0352 µM
same,"activity change, negative = inhibition","[11]; Viability, at 45.9 µM (top of the series)",inactive: 27.7%
same,Potency,[12],active: 0.282 µM
same,Potency,[13],active: 0.158 µM
same,Potency,[14],active: 0.501 µM
same,Potency,[15],inconclusive: 0.282 µM
same,Potency,[16],"inconclusive: 0.199 µM [cytotoxic, full curve, poor fit]"
CCCCCCC[N+](CC)(CC)CCCCc1ccc(Cl)cc1,Potency,[17],active: 1.61 µM
same,Potency,[1],active: 6.68 µM
same,Potency,[2],"inconclusive: 9.44 µM [inhibitor, partial curve]"
same,Potency,[18],"inconclusive: 18.8 µM [inhibitor, partial curve]"
same,Potency,[19],active: 0.596 µM
same,Potency,[8],active: 0.237 µM
same,Potency,[9],active: 4.73 µM
same,Potency,[4],active: 8.91 µM
same,Potency,[12],"inconclusive: 8.91 µM [cytotoxic, partial curve]"
same,Potency,[13],active: 11.2 µM
same,Potency,[14],active: 10 µM
same,Potency,[15],"inconclusive: 31.6 µM [cytotoxic, single point]"
same,Potency,[16],"inconclusive: 15.8 µM [cytotoxic, partial curve, poor fit]"
Cc1cc(Cl)ccc1OCCCC(=O)NO,Potency,[1],"inconclusive: 33.2 µM [inhibitor, single point]"
same,max response,[2],inactive: 3.7%
same,Potency,[18],"inconclusive: 26.4 µM [inhibitor, single point]"
same,Potency,[8],"inconclusive: 14.8 µM [inhibitor, partial curve, poor fit]"
same,Potency,[9],"inconclusive: 5.9 µM [inhibitor, partial curve]"
CC(C)(O)Cn1c(NC(=O)c2ccc(-c3cn[nH]c3)s2)nc2cc(CN3CCOCC3)ccc21,Potency,[1],active: 0.526 µM
same,Potency,[2],active: 1.32 µM
same,Potency,[5],active: 1.05 µM
same,Potency,[18],active: 2.35 µM
same,Potency,[6],active: 2.96 µM
same,Potency,[7],active: 4.69 µM
same,Potency,[19],active: 1.18 µM
same,Potency,[8],active: 14.8 µM
same,Potency,[9],active: 1.87 µM
same,Potency,[10],"inconclusive: 1.66 µM [inhibitor, full curve]"
O=C(O)c1ccc(Nc2ncc3c(n2)-c2ccc(Cl)cc2C(c2c(F)cccc2F)=NC3)cc1,Potency,[1],"inconclusive: 37.2 µM [inhibitor, single point] and inconclusive: 3.66 µM [inhibitor, full curve]"
same,Potency,[2],"inconclusive: 2.64 µM [inhibitor, full curve]"
same,Potency,[5],active: 18.7 µM and active: 5.8 µM
same,Potency,[18],"inconclusive: 10.5 µM [inhibitor, partial curve] and inconclusive: 4.11 µM [inhibitor, partial curve]"
same,Potency,[6],"inconclusive: 9.35 µM [inhibitor, partial curve]"
same,Potency,[19],"inconclusive: 5.26 µM [inhibitor, full curve]"
same,Potency,[10],"inconclusive: 3.32 µM [inhibitor, full curve]"
same,Potency,[14],"inconclusive: 3.16 µM [cytotoxic, single point]"
same,Potency,[16],"inconclusive: 3.16 µM [cytotoxic, partial curve, poor fit]"
CN1CCCN(C(c2ccccc2)c2ccc(Cl)cc2)CC1 (configuration not stated),Potency,[17],active: 1.2 µM
same,Potency,[1],"inconclusive: 29.9 µM [inhibitor, single point]"
same,Potency,[2],"inconclusive: 33.5 µM [inhibitor, partial curve, poor fit]"
same,Potency,[18],"inconclusive: 26.6 µM [inhibitor, single point]"
same,Potency,[6],"inconclusive: 18.8 µM [inhibitor, single point]"
same,Potency,[19],"inconclusive: 18.8 µM [inhibitor, single point]"
same,Potency,[8],"inconclusive: 23.7 µM [inhibitor, single point]"
same,Potency,[4],"inconclusive: 22.4 µM [inhibitor, partial curve]"
same,Potency,[12],inactive
same,Potency,[13],inactive
same,Potency,[14],"inconclusive: 39.8 µM [cytotoxic, single point]"
